Experimental data as given in patent US20120197004A1, “NOVEL ANTI-MICROBIAL PEPTIDOMIMETIC COMPOUNDS AND METHODS TO CALCULATE ANTI-MICROBIAL ACTIVITY” (priority 2006, published 2012).
Where a SMILES comes first, the peptide text is derived from it. [ ]: non-standard residue; d: D form. ξ: configuration not given here. ξTic = O=C(O)C1Cc2ccccc2CN1; ξOic = O=C(O)C1CC2CCCCC2N1

Assay: Maximum tolerated dose in mouse model
Assay type: in vivo
Conditions: IP, dosed daily day 1-6
Method: Maximum Tolerated Dose: Six compounds were evaluated in an in vivo mouse model to determine the maximum tolerated dose for each compound by BIOCON, Inc. using the following protocol. For each compound 3 dose concentrations (1/5/25 mg/kg or 5/25/125 mg/kg) were administered IP, 1-2 times per day as split doses. Day 0 weigh the animals, day 1-6 dose daily and observe animals, day 7 weigh, euthanasia followed by necrotize to examine abdominal cavity.

## CC(=O)NCC(=O)N[C@@H](Cc1ccccc1)C(=O)N1Cc2ccccc2CC1C(=O)N1C(C(=O)NCC(=O)N[C@@H](CCCCN)C(=O)N2Cc3ccccc3CC2C(=O)N2C(C(=O)NCC(=O)N[C@@H](Cc3ccccc3)C(=O)N3Cc4ccccc4CC3C(=O)N3C(C(=O)NCC(=O)N[C@@H](CCCCN)C(=O)N4Cc5ccccc5CC4C(=O)N[C@@H](CCCCN)C(=O)N[C@@H](CCCCN)C(=O)N[C@@H](CCCCN)C(=O)N[C@@H](CCCCN)C(N)=O)CC4CCCCC43)CC3CCCCC32)CC2CCCCC21 (stereo partly drawn) [FKAB-1G, Ac-GF-Tic-Oic-GK-Tic-Oic-GF-Tic-Oic-GK-Tic-KKKK-CONH2] (Ac-GF[ξTic][ξOic]GK[ξTic][ξOic]GF[ξTic][ξOic]GK[ξTic]KKKK-NH2)
  Maximum Tolerated Dose/Toxicity 125 mg/kg: all animals lost weight and one animal died
